Reference: the supplement of paper PMC3334620
Over roughly 33,000 sequences, “E-score (-0.5 to 0.5)” has its median near -0.011; the highest 2% begin near 0.28. Some of the results follow.

The sequences below were run against T1, Gcr1 (UniProt P07261) (assay: PBM E-score (8-mer binding enrichment) (E-score (-0.5 to 0.5)); higher = stronger / more preferred TF binding; most listed sequences are background and not binding sites). Details: protein concentration: 100 nM; construct: GST-full length.
T1 sequence: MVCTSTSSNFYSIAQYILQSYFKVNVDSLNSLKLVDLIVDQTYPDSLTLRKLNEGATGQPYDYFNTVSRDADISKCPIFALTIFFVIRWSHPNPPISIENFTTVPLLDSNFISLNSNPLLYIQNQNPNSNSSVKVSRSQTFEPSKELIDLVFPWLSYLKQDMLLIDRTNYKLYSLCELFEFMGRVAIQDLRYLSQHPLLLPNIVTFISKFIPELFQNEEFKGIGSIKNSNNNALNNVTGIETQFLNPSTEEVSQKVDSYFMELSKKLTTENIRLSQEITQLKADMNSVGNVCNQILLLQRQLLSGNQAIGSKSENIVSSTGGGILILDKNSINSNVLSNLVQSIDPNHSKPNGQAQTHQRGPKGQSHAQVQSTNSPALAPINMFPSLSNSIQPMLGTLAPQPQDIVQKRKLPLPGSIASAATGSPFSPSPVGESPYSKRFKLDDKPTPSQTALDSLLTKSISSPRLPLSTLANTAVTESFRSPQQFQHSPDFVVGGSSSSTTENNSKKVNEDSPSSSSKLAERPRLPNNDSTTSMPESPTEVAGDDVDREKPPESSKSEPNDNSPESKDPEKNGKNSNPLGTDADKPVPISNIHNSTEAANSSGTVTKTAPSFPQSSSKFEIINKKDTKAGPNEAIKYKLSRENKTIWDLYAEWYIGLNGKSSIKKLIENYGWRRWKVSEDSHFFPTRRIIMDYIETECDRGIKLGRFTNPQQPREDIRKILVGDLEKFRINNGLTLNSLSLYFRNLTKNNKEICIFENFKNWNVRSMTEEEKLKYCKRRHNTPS
In short: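 Detection of bound protein used fluorescent anti-GST, with scans normalised by masliner. The proteins were GST-tagged yeast transcription factors applied at about 100-200 nM to universal all-10-mer Agilent arrays made double-stranded by primer extension. Each ungapped eight-base word, pooled with its reverse complement, was scored with an E-score from the Universal PBM Analysis Suite.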

Sequence	PBM E-score
CTGACTAA	0.0519
CGGTAGCC	0.296
AACCGTGC	-0.0592
ACATTCTA	-0.0517
CCAATAGA	0.00833
CGATACCA	0.168
GAGGCTGC	0.253
CGAGCCCC	-0.152
GACTACCA	0.106
CCGGGTAA	-0.015
AGCTGACT	0.0156
CTGTAGTA	-0.0217
ACGACTCT	0.109
CGATCACC	-0.00295
CTGCGAAA	0.0313
GCAGATAC	0.0819
CTGATATA	-0.0171
GTTCATCA	0.108
AGCACTAG	-0.115
GATAGCCC	-0.0221
AACGTGCA	-0.107
CCGGCGTA	-0.139
CCTTCGAG	-0.338
GATTTTTA	-0.00889
CATCTGGA	0.255

Sequence	PBM E-score
GTACCTAA	0.0257
AACTCTGG	0.0872
ACCCGCCC	-0.135
AATAATCC	0.029
CGTAGCTA	-0.0233
CACATATG	-0.119
ACAATCCT	-0.0527
ATGTGTCA	-0.206
AACCCTGC	-0.221
GATTTATA	0.0651
CGGGCTGC	0.234
CTGGCTAC	0.119
AGTTTCCA	0.193
ACGTCTTG	0.11
TATCCACA	0.0115
CTATGGAC	0.0979
ATTGCTGG	0.0236
GATCTACC	-0.202
CCCCACAG	-0.0776
ACGTCGTG	-0.00249
AGAGGCTA	-0.062
GTAGGCAA	-0.224
AGCAATAG	0.0355
GTTCCTCA	0.0956
CGGCTTAA	0.034

Sequence	PBM E-score
ACCGTGCG	-0.147
AACATACA	-0.0889
CAGTCATG	-0.145
CAATACTA	0.111
CATTCTAC	-0.217
AAACGTTG	-0.00289
CCCGGGTA	-0.031
GACTCCTA	0.229
AGCGTATG	-0.00269
AGCATCGC	0.0417
AACGACTT	-0.126
CTTAGAAG	0.143
ATAAGTCG	0.126
AACCCTCC	-0.205
AGTGGCAA	0.088
ATTTTTTG	0.228
GCCCAAAA	0.217
CTCCACAA	0.0774
CCGAACGG	-0.208
GGGTAGGA	-0.0932
CTAAAGGA	0.278
ATTGGTCC	-0.0749
CACCAAGA	0.22
ATGGCGGA	-0.0187
GCGGATAC	0.194

Sequence	PBM E-score
ATGTGCGA	-0.0959
CGTGCGCC	-0.107
CACGCTCA	-0.0546
AGGAGACT	-0.00509
AACGTTGG	-0.0681
AGCAAAGA	0.0102
GGGGGTAC	-0.133
CGACTACA	-0.0338
AGCTATAG	-0.0832
GAGTACTA	-0.157
GAAATTTC	0.223
AGGACCGC	-0.088
AACCAAGA	0.119
AAGGGATA	-0.0519
CGACAACC	0.087
GCAAGCGA	-0.0442
ATGGACTG	-0.107
CTGAAAGC	-0.2
AATTTCTC	0.0817
TCCACCAA	0.109
AAAGAGCT	0.012
AGTTGAAT	-0.0577
CAGCTCGC	-0.117
GTCGTGGA	-0.217
CCTATATC	0.111

Sequence	PBM E-score
AATTCCTC	0.116
ACTTGAGC	-0.227
GATTTTAC	0.0086
ACATGAGT	0.0888
CTAATAGA	0.0482
GCCGCGAA	-0.164
ATATAGTA	0.0849
CATCCCCC	-0.257
CGTCCGAC	-0.0429
GACGAAGC	0.237
GGAACGAC	-0.0685
TCTGCGCA	-0.127
CTCATAAG	0.0247
AGAGGTAC	-0.0101
CGAAATAG	0.131
CTCGAAGC	-0.0341
ACAAGACC	-0.0386
AAGTAGAA	0.0726
ACCAGGAG	0.0329
AAGCGCGA	-0.0142
GACATAGC	-0.0975
ATCGCACG	-0.145
GAGCGATC	-0.159
TCGGCAAA	0.0668
CTTCCATC	-0.0566

Sequence	PBM E-score
ATCAGTTG	-0.0954
GATCTTGC	-0.202
CGACCAGA	-0.0313
CCGTGTAC	-0.0544
CAGTACTA	0.043
ATAACCCC	-0.0804
ACTCTCCC	-0.115
AATAGACT	0.0888
ACCAAGGA	0.091
ATCGGGGC	-0.0113
GGCGAAGA	-0.161
CTGAATAA	0.0588
TAATTATA	0.255
AGACGGGG	-0.049
AGCCCCTC	0.0713
CCCAAAAC	0.179
CATTATGA	0.0396
CACTAGTG	0.173
GTCGTTAA	-0.0319
CAAGGATA	0.0872
ACCACTTG	0.241
CACGGTAG	-0.0214
CCCCTACG	-0.119
CCAGCTTC	0.333
CGCACTAC	-0.0769

Sequence	PBM E-score
AGATTCGG	0.134
AGCACATC	-0.0359
TGCACTAA	-0.18
CGGGGGAG	-0.203
ATCGCTTA	-0.0792
GACGGATA	-0.0581
AGTGGATA	0.0533
TCCGATAA	0.198
ACTATTGA	0.122
GAGTATGA	-0.0782
CCCCCAGG	-0.153
GTGAAACA	0.0915
GGTCCATA	-0.14
ATCCTGGA	0.162
ATGATTTC	-0.142
ACTCTGAC	-0.0488
GGCCTAGA	-0.0343
AGGTAGTC	0.072
AGCCAGAC	-0.0477
GCATTGAA	0.00177
GTAGCGAC	0.058
CGTAAAAC	0.04
GTAGCCTA	-0.177
CGACATTA	0.306
GCTAACGA	-0.0946

Sequence	PBM E-score
CATAAATG	0.0345
AACTTACA	-0.0441
CATCTTTC	-0.179
ACACCCAT	0.0313
GGCCAGGA	-0.105
CGTGTCCC	-0.00613
GACAGGAC	0.0783
ACTCATCG	-0.236
AAGGCACG	-0.0994
AAGTAAGA	0.0425
GGGGGATA	0.00301
GCGCTACA	0.108
AATGGCGT	0.149
AAATTCCC	0.0437
AAATGTCC	-0.189
AACCCACG	-0.0329
GTCGTGTA	0.178
ATATAGAT	0.147
GAGTGGAC	-0.0196
GCGATGAC	-0.0921
CCGTGATA	0.0655
AAAATGTG	0.13
TCACCCCA	-0.00691
AGTATGAC	-0.0345
AATATCCA	0.0713

Sequence	PBM E-score
CACCCCAG	0.0913
AATCCACA	0.1
CCGTCAAC	-0.103
AGGTTGGG	-0.12
CATGTTAC	-0.0414
GTAGCAAA	-1e-05
CAGTTGCA	-0.0764
AAGCTAGA	0.013
CGCACCTC	-0.00681
GGAAGATA	0.0865
ACCCTCAC	-0.0906
AAACCAGG	0.0486
ATAGCTGA	-0.0965
GATTTCCA	0.113
CACGCAGG	-0.0117
AAGACATC	-0.273
CGACAGCC	-0.141
GTTAATGA	-0.103
ATCGGCAT	-0.0592
